Measured values reported in PubChem BioAssay AID504332 (National Center for Advancing Translational Sciences (NCATS), 2011).
Values joined by “and” are separate entries in the source; they are usually repeats but may differ in a detail not shown here. Equal values may be shown once. In all, about 350,000 compounds went through this assay and about 31,000 (8.9%) were called active. The shares of active, inactive and inconclusive entries below differ from those in the screen. The call rests on the fitted dose curve; in most records, active means well fitted inhibition curve with a large enough effect; inconclusive means small, poorly fitted or top-dose-only effect; inactive means no such curve, though single readings can be large or run the other way. A potency beside an inconclusive call is a rough fit, not a confirmed value. Some compounds were tested as several samples or in several runs, with calls that do not always agree.

These compounds were tested against Histone-lysine N-methyltransferase EHMT2 (Homo sapiens) (UniProt Q96KQ7) (assay: qHTS Assay for Inhibitors of Histone Lysine Methyltransferase G9a). Conditions: G9a H3K9 monomethylation, AlphaScreen, 2 h; activity, negative = inhibition: at 59 µM (top of the series) unless noted.
Chain of UniProt Q96KQ7 (Q96KQ7 whole entry, looked up): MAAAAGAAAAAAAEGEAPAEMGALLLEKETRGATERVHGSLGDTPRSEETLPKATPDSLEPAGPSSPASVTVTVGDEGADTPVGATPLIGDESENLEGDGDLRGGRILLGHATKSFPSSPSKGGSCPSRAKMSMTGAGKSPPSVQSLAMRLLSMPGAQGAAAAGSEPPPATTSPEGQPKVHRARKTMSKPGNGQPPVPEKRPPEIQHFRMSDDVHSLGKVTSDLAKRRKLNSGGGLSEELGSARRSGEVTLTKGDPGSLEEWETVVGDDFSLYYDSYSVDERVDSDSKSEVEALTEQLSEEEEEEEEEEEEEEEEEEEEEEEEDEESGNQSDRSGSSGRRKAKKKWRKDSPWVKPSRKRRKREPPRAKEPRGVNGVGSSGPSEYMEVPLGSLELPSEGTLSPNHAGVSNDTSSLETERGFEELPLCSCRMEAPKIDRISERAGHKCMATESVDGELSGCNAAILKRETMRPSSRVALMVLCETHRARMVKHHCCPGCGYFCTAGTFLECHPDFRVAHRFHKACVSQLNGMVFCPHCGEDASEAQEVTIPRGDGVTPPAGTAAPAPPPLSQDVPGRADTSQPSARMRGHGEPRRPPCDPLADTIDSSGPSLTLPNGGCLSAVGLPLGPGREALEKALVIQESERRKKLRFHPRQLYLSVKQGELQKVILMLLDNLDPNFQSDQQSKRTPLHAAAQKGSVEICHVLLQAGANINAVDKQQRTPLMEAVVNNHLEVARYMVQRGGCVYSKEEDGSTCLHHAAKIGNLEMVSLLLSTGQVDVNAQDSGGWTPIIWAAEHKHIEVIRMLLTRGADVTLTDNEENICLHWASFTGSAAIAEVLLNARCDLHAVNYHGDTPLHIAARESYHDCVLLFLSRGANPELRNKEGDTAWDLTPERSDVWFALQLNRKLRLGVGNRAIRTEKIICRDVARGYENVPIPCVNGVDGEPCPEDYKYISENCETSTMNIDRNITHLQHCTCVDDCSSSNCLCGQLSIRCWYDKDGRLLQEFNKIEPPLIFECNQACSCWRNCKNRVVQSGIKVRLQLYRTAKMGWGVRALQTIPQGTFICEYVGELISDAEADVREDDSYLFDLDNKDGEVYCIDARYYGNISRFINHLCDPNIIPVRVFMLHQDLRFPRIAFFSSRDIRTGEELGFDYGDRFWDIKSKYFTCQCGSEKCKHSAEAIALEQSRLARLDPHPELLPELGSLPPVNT
Method in brief: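 Compounds were preincubated with 20 nM G9a for 15 min, after which biotinylated H3K9 peptide (500 nM) and SAM (20 uM) started a 2 h room-temperature reaction. Monomethylated product was quantified by antibody-based AlphaScreen chemiluminescence.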
Further: nearly all actives have a fitted effect of over 75% in size.
On the % scale 0 is the no-effect control and ±100 the full control effect; potency means the concentration at half of the fitted maximal effect; tags describe the fitted curve by direction and shape.

How did the “activity, negative = inhibition” value turn out when `COc1ccc(Cc2nnc(SCC(=O)Nc3ccc(C)c(C)c3)o2)cc1OC` was run?
Its value is inactive: -11.7% [at 102 µM].

How did the Potency turn out when `N/N=C(\Cc1cscn1)c1ccc(O)cc1O` was run?
Its Potency is active: 10 µM.

With `N#CCCn1cc(/C=N/NC(N)=S)c(-c2ccc(Br)cc2)n1` as the compound, how does the Potency read?
The Potency was inconclusive: 44.7 µM [inhibitor, partial curve, poor fit].

How did the “activity, negative = inhibition” value turn out when `O=C(CSc1nc2ccccc2c(=O)[nH]1)N1CCOCC1` was run?
Its value is inactive: -9.71%.

`O=C(c1ccc(S(=O)(=O)c2ccccc2)cc1)N1CCCCCC1` was tested. Which Potency did it give?
The Potency was inconclusive: 0.891 µM [inhibitor, full curve].

For `Cc1ccccc1NC(=S)NCc1ccco1`, which Potency is on record?
Its Potency is inconclusive: 100 µM [inhibitor, single point].

How did the activity, negative = inhibition turn out when `CC(C)OC(=O)c1c(NC(=O)CCn2nnc3ccccc32)sc2c1CCCC2` was run?
The activity, negative = inhibition was inconclusive: -80% [inhibitor].

`O=S(=O)(c1cccc(Br)c1)N1CCN(C(=S)NCC2CCCO2)CC1` (stereo unspecified) was tested. Which “activity, negative = inhibition” value did it give?
Its value is inactive: 6.47% [at 102 µM].

Which Potency does the source give for `O=C(CSc1nnnn1-c1ccccc1)Nc1nc(-c2ccccc2)ns1` here?
The Potency was inconclusive: 89.1 µM [inhibitor, single point].

`CC(Sc1cccc[n+]1[O-])C(=O)Nc1cccc(S(=O)(=O)N2CCOCC2)c1` (stereo unspecified) was tested. Which Potency did it give?
Its Potency is active: 8.91 µM.

With `CCOC(=O)N1CCC(N2C(=O)c3ccccc3C2Nc2ccc(S(=O)(=O)N3CCOCC3)cc2)CC1` (stereo unspecified) as the compound, how does the Potency read?
Its Potency is active: 44.7 µM.

For `CCOc1ccc(CCNC(=O)CCc2nnc3ccc(N4CCOCC4)nn23)cc1`, which Potency is on record?
The Potency was inconclusive: 89.1 µM [inhibitor, single point].

For `CCNc1nc(-c2cc(C)n(Cc3ccco3)c2C)cs1`, which Potency is on record?
Its Potency is active: 15.8 µM.

`Cc1ccc(Cn2c(CN3CCN(c4cccc(Cl)c4)CC3)nc3c2c(=O)n(C)c(=O)n3C)cc1` was tested. Which Potency did it give?
The Potency was inconclusive: 11.2 µM [inhibitor, partial curve, poor fit].

Which “activity, negative = inhibition” value does the source give for `O=[N+]([O-])c1ccc(O)c(-c2ccnc3cc(-c4ccccc4)nn23)c1` here?
The value was inactive: -3.56%.

`CCc1sc(NC(=O)COC)nc1-c1ccccc1` was tested. Which Potency did it give?
The Potency was active: 35.5 µM.

For `c1csc(C2C3=C(Nc4ncnn42)c2ccccc2OC3)c1` (stereo unspecified), which Potency is on record?
Its Potency is inconclusive: 35.5 µM [inhibitor, single point].

`O=C(CSc1nnc(CN2CCCCCC2=O)n1-c1ccccn1)NCC(F)(F)F` was tested. Which Potency did it give?
The Potency was inconclusive: 89.1 µM [inhibitor, single point].

`CCCCCCn1c(=O)c(C(=O)N/N=C/c2cccc(F)c2)c(O)c2ccccc21` was tested. Which “activity, negative = inhibition” value did it give?
The value was inactive: 56.5%.

Which Potency does the source give for `Cc1nn(CC(=O)NCc2ccc(N(C)C)cc2)c(=O)c2nn(-c3ccccc3)c(C)c12` here?
The Potency was inconclusive: 2.82 µM [inhibitor, full curve, poor fit].

How did the Potency turn out when `C=CCOC(=O)C1=C(C)NC(SCC(=O)Nc2ccccc2)=C(C#N)C1c1ccco1` (stereo unspecified) was run?
The Potency was inconclusive: 11.2 µM [inhibitor, partial curve, poor fit].

For `CC1CCCN(C2(O)C(=O)Nc3ccc(Cl)cc32)C1` (stereo unspecified), which Potency is on record?
Its Potency is inconclusive: 1 µM [inhibitor, partial curve, poor fit].

For `CC(=O)Nc1ccc(OC(=O)Oc2ccc(NC(C)=O)cc2)cc1`, which Potency is on record?
Its Potency is inconclusive: 1.41 µM [inhibitor, partial curve, poor fit].

Which “activity, negative = inhibition” value does the source give for `CCC(=C(CC)c1ccc(O)cc1)c1ccc(O)cc1` here?
The value was inactive: 10.8% [at 21.5 µM].

Which “activity, negative = inhibition” value does the source give for `COCCCNC(=O)c1ccc(Cn2c(=O)c3cccn3c3cccnc32)cc1` here?
Its value is inactive: 1.31%.

Which Potency does the source give for `CCc1ccccc1-n1nnnc1-c1cnccc1C(F)(F)F` here?
The Potency was inconclusive: 56.2 µM [inhibitor, partial curve].

How did the Potency turn out when `COc1ccc(N=Nc2c(C)n[nH]c2C)cc1` was run?
The Potency was inconclusive: 50.1 µM [inhibitor, partial curve].

Which Potency does the source give for `Cc1ccc(NC(=O)CN2C(=O)N/C(=C/c3cc(C)n(-c4ccc(C(=O)O)cc4)c3C)C2=O)cc1` here?
The Potency was active: 28.2 µM.

With `COc1ccc(S(=O)(=O)NCCN2CCNC2=O)cc1OC` as the compound, how does the “activity, negative = inhibition” value read?
The value was inactive: 4.6% [at 102 µM].

With `CC1CCc2nc(NC(=O)CN3CCN(c4ccccc4)CC3)sc2C1` (stereo unspecified) as the compound, how does the Potency read?
The Potency was inconclusive: 7.08 µM [inhibitor, single point].

Which Potency does the source give for `Cn1cccc1C(=O)OCC(=O)c1cc2ccccc2o1` here?
Its Potency is active: 44.7 µM.

Which Potency does the source give for `CNC(=O)NC(=O)COC(=O)c1cccc(S(=O)(=O)N2CC3(C)CC2CC(C)(C)C3)c1` (stereo unspecified) here?
The Potency was inconclusive: 89.1 µM [inhibitor, partial curve, poor fit].

`Cn1cccc1-c1cc(C(=O)N/N=C/C=C/c2ccccc2)[nH]n1` was tested. Which Potency did it give?
Its Potency is inconclusive: 11.2 µM [inhibitor, partial curve].

With `COc1ccc(-c2nc(C#N)c(NCCc3ccccc3)o2)cc1OC` as the compound, how does the activity, negative = inhibition read?
Its activity, negative = inhibition is inconclusive: -74.9% [inhibitor].

Which Potency does the source give for `Cc1ccc(Nc2ccc(N)cc2S(=O)(=O)O)cc1` here?
Its Potency is active: 31.6 µM.

With `CC1(NC(=O)Cn2cc(C(F)(F)F)ccc2=O)CCS(=O)(=O)C1` (stereo unspecified) as the compound, how does the “activity, negative = inhibition” value read?
The value was inactive: 15.4%.

For `COC(=O)NCc1cc2cc(Cl)ccc2[nH]1`, which Potency is on record?
The Potency was inconclusive: 17.8 µM [inhibitor, partial curve, poor fit].

Which Potency does the source give for `Cc1nn(-c2ccc(F)cc2)c2sc(C(=O)OCC(=O)N3CCC(C)CC3)cc12` here?
The Potency was inconclusive: 44.7 µM [inhibitor, partial curve].

Which “activity, negative = inhibition” value does the source give for `Cc1ccc2nc(NC(=O)C3=NN(c4ccccc4)C(=O)CC3)sc2c1` here?
Its value is inactive: -26.1% [at 102 µM].

How did the Potency turn out when `Cc1ccc(OCC(=O)Nc2ccc(O)c(C(=O)O)c2)cc1C` was run?
Its Potency is active: 35.5 µM.

Which Potency does the source give for `CC(OC(=O)c1ccc(NC(=O)CC#N)cc1)C(=O)Nc1nc(-c2ccccc2)cs1` (stereo unspecified) here?
The Potency was inconclusive: 50.1 µM [inhibitor, partial curve, poor fit].

For `COc1ccc(-n2c(=S)[nH]c3cc(C(=O)O)ccc3c2=O)cc1`, which Potency is on record?
Its Potency is inconclusive: 50.1 µM [inhibitor, partial curve].

Which Potency does the source give for `Cn1c(=O)c2c(nc(SCc3cccnc3)n2Cc2ccc(F)cc2)n(C)c1=O` here?
Its Potency is inconclusive: 31.6 µM [inhibitor, single point].

How did the Potency turn out when `CN=c1nc(-c2ccccc2)n(-c2ccccc2)s1` was run?
Its Potency is active: 355 nM and active: 1.12 µM.

For `Cc1ccc2[nH]c(=O)cc(C(=O)OCC(=O)c3ccc(F)cc3)c2c1`, which Potency is on record?
Its Potency is inconclusive: 39.8 µM [inhibitor, partial curve, poor fit].

How did the “activity, negative = inhibition” value turn out when `Cc1cc(C)n(CCNC(=O)c2cc(COc3ccc(F)cc3Cl)on2)n1` was run?
The value was inactive: -23.7% [at 102 µM].

With `CN(C)CCNC(=O)CNC(=S)N(CCCN1CCOCC1)Cc1cccs1` as the compound, how does the Potency read?
Its Potency is inconclusive: 0.141 µM [inhibitor, partial curve, poor fit].

Which Potency does the source give for `O=C(NC1CCCCC1)C(c1ccncc1)N(CC1CCCO1)C(=O)C(F)(F)F` (stereo unspecified) here?
Its Potency is inconclusive: 31.6 µM [inhibitor, single point].

`Cc1sc2nc(CSCC(=O)N(CCC#N)c3ccccc3)[nH]c(=O)c2c1C` was tested. Which Potency did it give?
The Potency was inconclusive: 31.6 µM [inhibitor, full curve].

Which Potency does the source give for `Cc1cc(C)c2sc(N(CCCN(C)C)C(=O)c3ccc(S(=O)(=O)N(C)Cc4ccccc4)cc3)nc2c1` here?
Its Potency is active: 39.8 µM.

With `O=C1C(=O)N(Cc2cccnc2)C(c2cccc(Br)c2)/C1=C(/O)c1ccc2c(c1)OCO2` (stereo unspecified) as the compound, how does the Potency read?
The Potency was inconclusive: 50.1 µM [inhibitor, single point].

Which Potency does the source give for `COc1ccc(CNC(=O)[C@H](CCSC)NC(=O)N2CCn3c2nc2ccccc23)cc1` here?
The Potency was inconclusive: 89.1 µM [inhibitor, single point].

For `COc1cc(CN(C)CCc2ccccc2)ccc1OCc1ccccc1`, which Potency is on record?
The Potency was inconclusive: 39.8 µM [inhibitor, full curve, poor fit].

For `Cc1cccc(C)c1OC(=O)CSc1nnc(-c2ccc3c(c2)OCO3)o1`, which “activity, negative = inhibition” value is on record?
Its value is inactive: -8.4%.

With `Cc1ccc(NC(=O)CN2C(=O)CC(c3ccc(C)c(C)c3)=Nc3ccccc32)cc1` as the compound, how does the “activity, negative = inhibition” value read?
Its value is inactive: -0.532%.

Which Potency does the source give for `Cc1cc(Nc2c(C)cccc2C)n2nc(C)nc2n1` here?
The Potency was inconclusive: 89.1 µM [inhibitor, single point].

How did the “activity, negative = inhibition” value turn out when `Cc1ccc(C(C)C)c(OCC(=O)Nc2ccc(O)c(-c3nc4cc(Cl)ccc4o3)c2)c1` was run?
The value was inactive: 6.72%.

With `COCCNCC(=O)Nc1ccc(OC(F)(F)F)cc1` as the compound, how does the Potency read?
Its Potency is active: 22.4 µM.

Which “activity, negative = inhibition” value does the source give for `CCOc1cc2[nH]c(=S)n(Cc3ccc(C(=O)NCC(OC)OC)cc3)c(=O)c2cc1OCC` here?
The value was inactive: -10.5% [at 102 µM].

With `COCCSc1ccccc1C(=O)NCc1ccco1` as the compound, how does the Potency read?
Its Potency is inconclusive: 3.16 µM [inhibitor, partial curve, poor fit].

How did the “activity, negative = inhibition” value turn out when `CCCOc1cccc(C(=O)Nc2cccc(NC(=O)c3ccc(Cl)cc3Cl)c2)c1` was run?
Its value is inactive: -0.0173%.

`CC1(C)Cc2ccccc2-c2nc(NN)[nH]c(=O)c21` was tested. Which Potency did it give?
Its Potency is inconclusive: 35.5 µM [inhibitor, partial curve, poor fit].

With `O=C(Cc1ccccc1)Nc1cccc(N2C(=O)C=CC2=O)c1` as the compound, how does the Potency read?
The Potency was active: 0.355 µM.

With `O=C(Oc1cccc2cccnc12)c1ccc2c(c1)OCCO2` as the compound, how does the Potency read?
Its Potency is inconclusive: 2 µM [inhibitor, single point].

`Cc1noc(C)c1CSc1nnc(-c2ccccc2)n1Cc1ccco1` was tested. Which “activity, negative = inhibition” value did it give?
The value was inactive: -48.6%.

How did the Potency turn out when `Cc1cccc(Cc2nnc(CCC(=O)NCc3cn4ccccc4n3)o2)c1` was run?
The Potency was inconclusive: 0.891 µM [inhibitor, partial curve, poor fit].

With `COc1cccc(CN2CCN(CC#Cc3ccccc3)CC2CCO)c1` (stereo unspecified) as the compound, how does the “activity, negative = inhibition” value read?
Its value is inactive: 23% [at 102 µM].

`CCCCNC(=O)CSc1nc2ccc(N3CCOCC3)cc2c(=O)n1Cc1ccc(OC)cc1` was tested. Which Potency did it give?
Its Potency is inconclusive: 50.1 µM [inhibitor, partial curve].

How did the Potency turn out when `O=C(N=Nc1c(O)n(Cc2ccccc2)c2ccccc12)c1cc2ccccc2cc1O` was run?
The Potency was inconclusive: 1.58 µM [inhibitor, partial curve, poor fit].

For `N#CC1(NC(=O)COc2ccccc2[N+](=O)[O-])CCCCC1`, which Potency is on record?
The Potency was active: 17.8 µM.

Which Potency does the source give for `COc1ccc(C(=O)Oc2cc(-c3ccc(OC)c(OC)c3)cc(=O)c3c(C)oc(C)c23)cc1` here?
Its Potency is inconclusive: 11.2 µM [inhibitor, partial curve].
